Measured values taken from the supplement of paper PMC3334620.
The full ranking holds about 33,000 sequences; the median of “E-score (-0.5 to 0.5)” is about -0.032, and the highest 2% start at about 0.36. The list shows a part of the results.

The sequences below were run against T1, Sko1 (UniProt Q02100) (assay: PBM E-score (8-mer binding enrichment) (E-score (-0.5 to 0.5)); higher = stronger / more preferred TF binding; most listed sequences are background and not binding sites). Details: protein concentration: 200 nM; construct: GST-full length.
T1 sequence: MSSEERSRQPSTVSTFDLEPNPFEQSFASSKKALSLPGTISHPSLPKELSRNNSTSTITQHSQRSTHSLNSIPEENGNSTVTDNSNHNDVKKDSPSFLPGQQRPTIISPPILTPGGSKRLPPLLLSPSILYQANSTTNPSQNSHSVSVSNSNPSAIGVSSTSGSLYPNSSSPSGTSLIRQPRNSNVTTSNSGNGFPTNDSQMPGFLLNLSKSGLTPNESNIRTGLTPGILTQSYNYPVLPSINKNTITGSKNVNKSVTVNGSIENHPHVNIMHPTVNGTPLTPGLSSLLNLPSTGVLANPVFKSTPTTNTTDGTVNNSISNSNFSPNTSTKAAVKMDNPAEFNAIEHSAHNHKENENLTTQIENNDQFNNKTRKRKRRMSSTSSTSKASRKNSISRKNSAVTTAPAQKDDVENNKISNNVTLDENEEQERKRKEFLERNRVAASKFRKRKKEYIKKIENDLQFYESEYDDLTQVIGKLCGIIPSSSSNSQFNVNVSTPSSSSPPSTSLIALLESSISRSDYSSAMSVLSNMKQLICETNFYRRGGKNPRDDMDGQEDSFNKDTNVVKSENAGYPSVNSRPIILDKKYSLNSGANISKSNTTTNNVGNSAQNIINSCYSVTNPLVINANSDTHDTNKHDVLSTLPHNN
Method in brief: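 Yeast transcription factors, full-length or as DNA-binding domains, were expressed with a GST tag using PURExpress in vitro transcription/translation. At about 100-200 nM they were applied to universal all-10-mer Agilent arrays, double-stranded by primer extension on fresh or once-stripped slides. Fluorescent anti-GST detected bound protein, and masliner normalised the scans. E-scores for ungapped eight-base words, pooled with reverse complements, came from the Universal PBM Analysis Suite.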

Row | Sequence | PBM E-score
1 | CAAGGTCC | -0.243
2 | TCCCGAGA | -0.195
3 | GCACAAGA | 0.0649
4 | TATCCCAA | 0.0039
5 | ACGTTACG | 0.428
6 | ACGACACG | 0.209
7 | GTAACCCA | 0.0995
8 | AGACTTAG | -0.228
9 | AGGAACAA | -0.177
10 | ACTAAGAA | 0.0524
11 | TATGAGGA | 0.0996
12 | AGTTCGGC | -0.0923
13 | TACATTGA | 0.0774
14 | CATCGTAG | 0.13
15 | CCTAGTTA | 0.0394
16 | CCCACTCA | -0.115
17 | ACGAGTCC | -0.0325
18 | GGCCATAC | -0.121
19 | GGACCAAA | 0.0897
20 | ACGCTTAC | 0.123
21 | CATATCAC | 0.169
22 | ATTGTAGC | -0.0529
23 | ATCTATCC | -0.0133
24 | AGGTATCA | -0.198
25 | CCGAACAC | -0.0487

Row | Sequence | PBM E-score
26 | GTGTAACA | -0.0212
27 | TCGTAAGA | 0.199
28 | ATTGCTAC | 0.0814
29 | AAGAGAAT | 0.0569
30 | GTAGTCAA | 0.231
31 | AAGTATGA | 0.178
32 | AAGTGTTC | 0.0966
33 | CGGGAACC | -0.28
34 | GGATAGCC | -0.193
35 | AGTTAAAA | 0.153
36 | GCCCCTAC | -0.00604
37 | ACAAGGTA | 0.0787
38 | AATAGCGC | 0.062
39 | GGTCCACA | -0.321
40 | AACACTCG | 0.0948
41 | CTACTGGC | -0.247
42 | CTGGCCCC | -0.315
43 | CTCTGAGC | -0.139
44 | AAAGGACC | -0.229
45 | CTCCAGCA | -0.209
46 | ATGACCAA | 0.184
47 | AAGATCGA | -0.0785
48 | CTCGTCCA | 0.221
49 | AATGTGAT | 0.263
50 | GTCATGAA | 0.221

Row | Sequence | PBM E-score
51 | AGGCTACT | -0.141
52 | AGCGCACC | -0.234
53 | GTCGACCA | -0.0244
54 | GATTCACC | -0.101
55 | ACGGTCGC | -0.108
56 | AGGGTGTA | -0.0881
57 | AAATGAGG | -0.0231
58 | ATGTCGAC | 0.202
59 | GCCTCGCC | -0.431
60 | AAACTCCG | -0.18
61 | GTATATAC | 0.218
62 | ACCTTTAA | 0.00575
63 | TCGACGCA | 0.0313
64 | CTGTCATC | 0.0473
65 | CATTAAGC | -0.0788
66 | TGCGGAAA | -0.155
67 | CACTAGAG | -0.0779
68 | AGTCGCGG | -0.312
69 | ACGTTACA | 0.359
70 | TCTCGAAA | 0.156
71 | GGTGGAAC | -0.174
72 | CGGGCTAG | -0.231
73 | AACAGCGG | -0.0117
74 | AGCTTTGC | -0.179
75 | AAATTGTC | 0.0973

Row | Sequence | PBM E-score
76 | AAGTCCCG | -0.293
77 | ACGAGAAA | 0.119
78 | AAGTTAAT | 0.191
79 | ACATATCC | 0.0118
80 | ACTGTTCC | -0.0754
81 | GAGCCTCC | -0.273
82 | TAGATGCA | -0.11
83 | CCCTTCCA | -0.191
84 | GATTGAAC | 0.0633
85 | ACGATATC | 0.196
86 | ACCCAACT | 0.016
87 | AATTGTTA | 0.129
88 | CAATAAAC | 0.112
89 | AACCCCGC | -0.157
90 | AATGCTCG | 0.164
91 | CAAAAACA | 0.021
92 | CCGTGTTC | -0.0799
93 | TACTCAAA | 0.196
94 | CCAGCCTA | -0.364
95 | ACCGATCA | -0.0191
96 | ACTTTGCA | -0.0269
97 | ATTGGTAC | -0.0769
98 | TACATGCA | 0.0816
99 | AACGAATC | 0.182
100 | AGTCCCAT | -0.166

Row | Sequence | PBM E-score
101 | TCTGTCCA | -0.0197
102 | CAGGAGTA | -0.0469
103 | GAACCCTA | -0.137
104 | AGAGTTTC | -0.144
105 | CGGATTTC | -0.233
106 | AAATCTCG | 0.014
107 | TCAGGGGA | -0.189
108 | CCCCGCAA | -0.0199
109 | CCACCTTC | -0.295
110 | CAGTGAGG | -0.193
111 | GGTTCGAA | 0.043
112 | CCTCTCAA | -0.0829
113 | ACAAGCAG | -0.165
114 | CACTTGCG | 0.0319
115 | ATGTGCGC | 0.0502
116 | AGGCGTAG | -0.177
117 | CGCTCGGC | -0.187
118 | CCCGACCA | -0.179
119 | CAGTGGAG | -0.149
120 | CGGCTTCA | -0.107
121 | GTCCGCAC | -0.00114
122 | CAATTGCA | -0.0524
123 | GATGAGCA | 0.127
124 | ACGGACGT | 0.192
125 | AATAGAAA | 0.0829

Row | Sequence | PBM E-score
126 | CACAAAGC | -0.122
127 | GTTGATTA | 0.196
128 | CAGCACAA | 0.153
129 | ACGGGGCT | -0.227
130 | CTAATCAG | -0.0472
131 | TATCTACA | 0.0403
132 | CCGCCATC | -0.29
133 | GAGGTAAC | 0.0793
134 | ACAAGAAC | 0.26
135 | CGCGGCCA | -0.143
136 | AGAACTTG | 0.0393
137 | AATGGCTG | -0.0573
138 | GTAGCTTA | 0.23
139 | CATCCTCC | -0.03
140 | ATTACTCG | 0.204
141 | ATACTGTG | -0.0411
142 | ATCATTAC | 0.341
143 | CAACCCTA | -0.0806
144 | ATAGTCGC | -0.0441
145 | ATGTGAGA | -0.0663
146 | CGTGGCTC | -0.0473
147 | CCGCATTC | -0.0977
148 | ACCACTCA | 0.00664
149 | CCTCGCCC | -0.0714
150 | AAGCCAGC | -0.0946

Row | Sequence | PBM E-score
151 | CCGGCCTA | -0.118
152 | CTTCTATC | -0.208
153 | GCACATGC | -0.122
154 | GATTAGAC | -0.0201
155 | CCGGATTA | -0.121
156 | AGCGGACC | -0.244
157 | GGTGCTAC | -0.189
158 | ATACTCAC | 0.0311
159 | ATGAGGGG | -0.289
160 | CGTACATC | 0.244
161 | GAGTAAGC | -0.211
162 | CATAAACG | 0.25
163 | ACACATCG | 0.0864
164 | CTGTCGCA | -0.19
165 | ATAACGGC | 0.0392
166 | ACCAGAAT | -0.0268
167 | ATTGCTTA | 0.034
168 | CAGCTTAG | -0.168
169 | ATTTGCAC | 0.199
170 | ATTTTGTG | 0.173
171 | ACCCGCAT | -0.134
172 | GGCGTCAA | 0.235
